# Measurements: PubChem BioAssay AID624417 (National Center for Advancing Translational Sciences (NCATS), 2012)
# Among all 410,000 compounds or so, about 6,400 (1.6%) were called active. Inconclusive means that the source gave no clear call. Such entries were picked first, then a sample of the others. Calls follow the shape of the dose curve; as a rule, active = well fitted inhibition curve with a large enough effect; inconclusive = small, poorly fitted or top-dose-only effect; inactive = no such curve, though single readings can be large or run the other way. Potencies of inconclusive entries are left out as doubtful fits.
# Target: Glucagon-like peptide 1 receptor (Homo sapiens) (UniProt P43220)
# Experiment: qHTS of GLP-1 Receptor Inverse Agonists (Inhibition Mode); also: nearly all actives have a fitted effect of over 55% in size
# Conditions: HEK293 GLP-1R CRE-luciferase, luminescence, 24 h, GLP-1R form is constitutively active; activity change, negative = inhibition: at 38.3 µM (top of the series) unless noted
# Procedure, shortened: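 Constitutively active GLP-1R drives a cAMP-responsive luciferase in stably transfected HEK293 cells; test compounds are added after overnight (12 h) attachment and left 24 hr, and signal loss in luminescence marks inhibition.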
# % is scaled to controls: 0 for no effect and ±100 for the full control effect; potency is read from the fitted curve at half-maximal effect; tags tell the direction and shape of the fitted curve.
# UniProt P43220, sequence (P43220 whole entry, looked up): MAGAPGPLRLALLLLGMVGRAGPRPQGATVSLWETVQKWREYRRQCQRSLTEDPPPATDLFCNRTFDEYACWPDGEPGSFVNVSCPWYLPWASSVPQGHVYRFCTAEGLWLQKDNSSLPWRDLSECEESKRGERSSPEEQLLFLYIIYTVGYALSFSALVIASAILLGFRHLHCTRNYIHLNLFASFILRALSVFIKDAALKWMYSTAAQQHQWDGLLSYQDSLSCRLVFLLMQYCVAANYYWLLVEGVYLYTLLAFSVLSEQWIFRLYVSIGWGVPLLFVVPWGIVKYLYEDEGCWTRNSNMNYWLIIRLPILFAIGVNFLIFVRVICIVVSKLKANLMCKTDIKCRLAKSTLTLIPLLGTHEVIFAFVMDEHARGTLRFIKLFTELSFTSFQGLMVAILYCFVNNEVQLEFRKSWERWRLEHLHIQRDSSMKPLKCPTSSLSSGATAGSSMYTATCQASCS
SMILES,Potency,"activity change, negative = inhibition"
OCC1(CCc2ccccc2)CCCN(C/C=C/c2ccccc2)C1 (stereo not given),"inconclusive [inhibitor, partial curve, poor fit]",–
CCn1c(=O)c([N+](=O)[O-])c(Cl)c2ccccc21,"inconclusive [inhibitor, single point]",–
Oc1ccc(Br)cc1-c1nc2cnccn2c1NC1CCCCC1,"inconclusive [inhibitor, partial curve, poor fit]",–
COc1ccc(CNC(=O)c2cc(S(=O)(=O)N3CCCCC3)ccc2Cl)cc1OC,"inconclusive [inhibitor, partial curve]",–
Cc1ccc2c(c1)N(C(=O)CCC(=O)NCc1ccccc1F)CC(C)O2 (stereo not given),"inconclusive [inhibitor, single point]",–
O=C(COc1ccc(Cl)cc1)OCc1cc(=O)n2nc(C3CCCCC3)sc2n1,–,inactive: 19.7%
COc1ccc(CN2C(=O)CCCc3ccccc32)cc1,"inconclusive [inhibitor, partial curve, poor fit]",–
CN(CC(=O)Nc1ccccc1Cl)C(=O)c1cccc(S(=O)(=O)N2CCN(Cc3ccccc3)CC2)c1,"inconclusive [inhibitor, single point]",–
CN1CCN(CCC(=O)N/N=C/c2cc([N+](=O)[O-])ccc2O)CC1,–,inactive: -18.8%
CCc1ccccc1NC(=O)CN(c1cc(C(F)(F)F)ccc1Cl)S(=O)(=O)c1ccccc1,"inconclusive [inhibitor, partial curve, poor fit]",–
O=c1c2oc3ccccc3c2n(Cc2ccccc2Cl)c(=O)n1Cc1ccc2c(c1)OCO2,–,inactive: 5.87%
Cc1ccc(OC(C)C(=O)N=Nc2c(O)[nH]c3ccc([N+](=O)[O-])cc23)cc1 (stereo not given),"inconclusive [inhibitor, single point]",–
CC(C)(C)c1ccc(C(=O)Nc2cccc(-n3cnnn3)c2)cc1,"inconclusive [inhibitor, partial curve, poor fit]",–
COc1ccccc1Nc1cc(C(=O)NCCCN(C)C2CCCCC2)c2ccccc2n1,"inconclusive [inhibitor, partial curve, poor fit]",–
COc1cccc(N2CCN(CC(=O)c3c(C)[nH]c4ccccc34)CC2)c1,"inconclusive [inhibitor, partial curve, poor fit]",–
O=C(COc1ccccc1)Nc1cccc(-c2nc3cc4ccccc4cc3[nH]2)c1,"inconclusive [inhibitor, single point]",–
COc1ccc(N(C(C)C(=O)N2CCC(Cc3ccccc3)CC2)S(C)(=O)=O)cc1 (stereo not given),"inconclusive [inhibitor, partial curve, poor fit]",–
O=C(Nc1ccc(Br)c(C(F)(F)F)c1)c1ccc(C(F)(F)F)cc1,"inconclusive [inhibitor, partial curve, poor fit]",–
CCC1CN(S(=O)(=O)c2cc(-c3cc(C)no3)ccc2OC)c2cc(Cl)ccc2O1 (stereo not given),"inconclusive [inhibitor, single point]",–
O=C1CN(C(=O)c2ccc(S(=O)(=O)N3CCCC3)cc2)C(c2ccc(F)cc2)c2cc(Br)ccc2N1 (stereo not given),"inconclusive [inhibitor, single point]",–

SMILES,Potency,"activity change, negative = inhibition"
CN1CCN(c2nc3cc(C(F)(F)F)ccc3n3cccc23)CC1,"inconclusive [inhibitor, single point]",–
CC1CCN(Cc2c(O)ccc3c(=O)c(-c4nc5ccccc5s4)c(N)oc23)CC1,"inconclusive [inhibitor, single point]",–
COc1ccc(-n2c(=O)c3c(C)c(C)sc3n(Cc3cccc(F)c3)c2=O)c(OC)c1,"inconclusive [inhibitor, full curve, poor fit]",–
COC(=O)c1ccc(CSc2nnc(SCc3ccc(C(=O)OC)o3)s2)o1,–,inactive: 0%
Cc1ccc2c(c1)N(C(=O)N1CCC(C(=O)Nc3cccc(F)c3)CC1)CCO2,–,inactive: -25%
NC(=O)CN1C(=O)C2C3CCC(C3)C2C1=O (stereo not given),–,inactive: -66.9%
COc1cc(CN2CCC(C(=O)NCCC(C)C)CC2)ccc1OCc1ccccc1,"inconclusive [inhibitor, partial curve, poor fit]",–
Cc1ccc(C(=O)N2CCCc3ccccc32)c(F)c1F,"inconclusive [inhibitor, partial curve, poor fit]",–
CCCc1cc(C(=O)Nc2ccc(C(=O)c3ccc(C)cc3)cc2)n(C)n1,active: 5.62 µM,–
CCCCNC(=O)CSc1nc2cc3c(cc2c(=O)n1CCCC(=O)NCc1ccc(OC)cc1)OCO3,–,inactive: 7.02%
CN(Cc1ccccc1)c1nc2c(S(=O)(=O)c3cccc(Cl)c3)nnn2c2ccsc12,–,inactive: 19.6%
Cc1cc(NC(=O)C2CC(=O)N(c3ccccc3C)C2)no1 (stereo not given),–,inactive: 15.1%
Cc1cc(C(=O)N/N=C/c2cccc3ccccc23)c(C)o1,"inconclusive [inhibitor, single point]",–
Cc1sc(N(C(=O)CCc2ccccc2)c2ccc(C(=O)O)cc2)nc1-c1ccccc1,"inconclusive [inhibitor, partial curve]",–
O=C(NCCN1CCc2ccccc2C1)C1CCN(S(=O)(=O)N2CCC3(CC2)OCCO3)CC1,–,inactive: 1.94%
CC1Nc2ncnc(N3CCN(c4ccccc4)CC3)c2N(Cc2ccc(Br)cc2)C1=O (stereo not given),"inconclusive [inhibitor, partial curve, poor fit]",–
CC(=O)/C(=C/c1ccc(N(C)C)cc1)C(=O)c1ccccc1,"inconclusive [inhibitor, single point]",–
CC(C)c1ccccc1NC(=S)NN(Cc1ccccc1)c1ccccc1,"inconclusive [inhibitor, partial curve, poor fit]",–
CN(Cc1cccc(Cl)c1Cl)C(=O)c1cccc(S(=O)(=O)N2CCN(Cc3ccccc3)CC2)c1,"inconclusive [inhibitor, single point]",–
COc1ccc(/C=C/CN2CCCC(C(=O)c3cc(F)ccc3F)C2)cc1 (stereo not given),"inconclusive [inhibitor, single point]",–
